# Test results taken from PubChem BioAssay AID1347073 (National Center for Advancing Translational Sciences (NCATS), 2019).
# The whole screen tested about 45,000 compounds, of which about 200 (0.44%) were called active. Inconclusive results (about 7%) are left out. Calls come from the whole dose curve; as a rule, active = well fitted activation curve with a large enough effect; inconclusive = small, poorly fitted or top-dose-only effect; inactive = no such curve, though single readings can be large or run the other way. The list shows a part of the results.
# Test: qHTS of TDP-43 Inhibitors: NCGC Sytravon Library Screen; note: 0% is about no effect; nearly all actives have a fitted effect of over 55% in size
# Conditions: yeast TDP-43 toxicity rescue, BacTiter-Glo growth, 24 h; series mostly up to 46.1 µM; growth rescue (activation): at the top concentration
# Summary of the method: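 TDP-43-expressing yeast, pregrown in raffinose, seeded at OD600 0.02 in galactose medium with compound for 24 hr at 30 deg C. Growth read by BacTiter-Glo luminescence, so rescue of toxicity appears as activation.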
row,SMILES,growth rescue (activation)
1,Clc1ccccc1-c1nn2c(Cn3cnc4ccccc43)nnc2s1,inactive: 25.9%
2,COc1ccc(C(=O)N/C(=C\c2ccco2)C(=O)NC2CCS(=O)(=O)C2)cc1 (stereo unspecified),inactive: -0.617%
3,COc1ccc(N2C(=O)C3C(C2=O)C3(c2ccccc2)c2ccccc2)cc1 (stereo unspecified),inactive: 24.8%
4,Cc1cccnc1C(NC(=O)C1CCN(Cc2ccc(Cl)cc2)CC1)c1ccc(F)cc1 (stereo unspecified),inactive: 12.3%
5,O=C(O)c1ccc2ncc(NC(=O)c3ccc(F)cc3)c(=O)n2c1,inactive: -1.37%
6,Cc1ccc(NC(=O)Cn2nc(C)c([N+](=O)[O-])c2C)cc1C,inactive: -2.79%
7,COc1ccc(S(=O)(=O)Nc2nc3ccccc3nc2NCc2ccc3c(c2)OCO3)cc1,inactive: 8%
8,CN(C(=O)CSc1nncc2ccccc12)c1ccccc1,inactive: 12.8%
9,C/C(=N\NC(=O)CSc1nc(C)cc(C)n1)c1cccs1,inactive: -10.9%
10,CCOc1ccc(C(C)NC(=O)c2cccnc2OCC)cc1OCC (stereo unspecified),inactive: 5.59%
11,Cc1ccc(N/N=C(\C#N)C(=N)N2CCOCC2)cc1,inactive: -6.23%
12,COc1ccc2[nH]c3c(=O)n(CCCCC(=O)NCCC(C)C)c(=S)[nH]c3c2c1,inactive: -2.69%
13,CCC(NC(=O)NCCCn1ccnc1)(C(F)(F)F)C(F)(F)F,inactive: -13.3%
14,CCOC(=O)c1cnc2c(C(F)(F)F)cccc2c1N1CCN(C)CC1,inactive: 13.2%
15,Fc1ccccc1C1c2[nH]c3ccccc3c2CCN1CCCn1cccn1 (stereo unspecified),inactive: -4.12%
16,N#C/C(=C/c1ccc(CNS(=O)(=O)c2ccccc2)o1)C(N)=O,inactive: 9.88%
17,CC(C)(C)NC(=O)c1ccccc1NC(=O)C1CCCO1 (stereo unspecified),inactive: -10.3%
18,CCc1nc2c(OCc3ccccc3OC)cccn2c1N(C)C(=O)C(C)C,inactive: -6.88%
19,CCCCOc1ccc(C(C)NC(=O)CCS(=O)(=O)Cc2ccccc2F)cc1 (stereo unspecified),inactive: 7.85%
20,O=C(/C=C/Nc1ccc(F)cc1Br)c1ccccc1,inactive: -8.52%
21,O=C(Nc1ccc(Cl)cc1)/C(=C1\CCCN1)[N+](=O)[O-],inactive: 6.88%
22,CN(C)c1ccc(Nc2nc(N)c([N+](=O)[O-])c(N3CCOCC3)n2)cc1,inactive: -3.69%
23,COc1cc(OC)c(C(=O)NCc2ccc3c(c2)OCO3)cc1OC,inactive: 1.27%
24,Cc1ccc(NC(=O)CCNC(=O)c2ccco2)cc1,inactive: -20.5%

row,SMILES,growth rescue (activation)
1,O=C(Nc1ccc(N2CCOCC2)cc1)c1cnccn1,inactive: 6.97%
2,O=C1SCCC1NS(=O)(=O)c1ccc([N+](=O)[O-])cc1 (stereo unspecified),inactive: 3.6%
3,O=C(OCC(=O)N1CCCC1)c1c(Cl)ccc(Cl)c1Cl,inactive: 5.92%
4,COC(=O)c1ccc(NC(=O)Cc2ccc(F)cc2)cc1,inactive: 8.97%
5,c1ccc(-c2nc3ccccc3[nH]2)nc1,inactive: 2.03%
6,Cc1nc(SCC(=O)Nc2nnc(C(C)C)s2)n[nH]1,inactive: -13.9%
7,CCOc1cc(C2C(C(=O)OC(C)C)=C(C)NC3=C2C(=O)CCC3)cc([N+](=O)[O-])c1O (stereo unspecified),inactive: -10%
8,CC(OC(=O)c1ccco1)C(=O)Nc1ccc(Cl)cn1 (stereo unspecified),inactive: -0.0689%
9,COc1ccc(S(=O)(=O)N2CCCCC2c2cc(C(=O)Nc3ccc(F)c(Cl)c3)no2)cc1 (stereo unspecified),inactive: 14.2%
10,Cc1ccc(S(=O)(=O)N2CCOCC2)cc1C(=O)Nc1nc2ccccc2[nH]1,inactive: 10.9%
11,CCCc1nc(SCC(=O)NC2CC2)c2c(C)c(C)sc2n1,inactive: -10.6%
12,Cc1cc(NC(=O)C(C)Oc2ccc(Cl)cc2Cl)no1 (stereo unspecified),inactive: -1.13%
13,Cc1ccc(/C=N/NC(=O)c2ccc3nc[nH]c3c2)o1,inactive: 19.1%
14,CCOc1ncccc1C(=O)OCC(=O)Nc1cc(S(=O)(=O)N2CCOCC2)ccc1Cl,inactive: 2.39%
15,CCCC(=O)N1CCCC1(C)C(=O)Nc1ccc2nc(C)ccc2c1 (stereo unspecified),inactive: -2.31%
16,Cn1c(=O)c2c(ncn2CC(=O)N2CCCCCC2)n(C)c1=O,inactive: -0.44%
17,O=C(COC(=O)c1cccc(S(=O)(=O)N2CCc3ccccc32)c1)Nc1ncc(C(F)(F)F)cc1Cl,inactive: 9.22%
18,CC(Oc1ccccc1)C(=O)NN1Cc2ccccc2C1=N (stereo unspecified),inactive: 3.64%
19,Cc1ccc(O)c(NC(=S)NC(=O)/C=C/c2ccco2)c1,inactive: 10.1%
20,O=C(COC(=O)Cc1ccsc1)Nc1ccc(Cl)cc1F,inactive: -2.86%
21,COc1ccccc1OCC(=O)Nc1ccc(S(=O)(=O)N2CCOCC2)cc1,inactive: 14.1%
22,O=C(CCNS(=O)(=O)c1ccc(Br)cc1)NC1CCCCC1,inactive: 4.63%
23,C=CCn1c(SCc2nc3ccccc3c(=O)[nH]2)nc2scc(C3CC3)c2c1=O,inactive: 25.6%
24,CCOC(=O)Cc1csc(NC(=O)CCSc2ccccc2)n1,inactive: 25.4%

row,SMILES,growth rescue (activation)
1,Cc1ccc(NC(=O)NN(C)c2c(Cl)c(Cl)nn2C)cc1,inactive: 3.83%
2,CCCNC(=O)C1(C)CCN(C(=O)c2ccc3sccc3c2)C1 (stereo unspecified),inactive: -0.984%
3,COc1ccc(NC(=O)COC(=O)c2cccn2C)cc1S(=O)(=O)N1CCCCC1,inactive: -2.11%
4,CCCOc1ccc(/C=C/c2[nH]c(=O)[nH]c(=O)c2[N+](=O)[O-])cc1OCC,inactive: -9.68%
5,CC(C)CNS(=O)(=O)c1ccc(CC(C)C)cc1,inactive: -11.1%
6,NC(=O)c1ccc(Nc2nc(C(N)c3ccccc3Cl)cs2)cc1 (stereo unspecified),inactive: 10.7%
7,O=C(Cn1cnc2ccccc21)N/N=C/c1cccnc1,inactive: -12.1%
8,Cc1ccc(/C=N/Nc2ccc(Cl)c(C(=O)O)c2)s1,inactive: 11.6%
9,COc1ccccc1NS(=O)(=O)c1cccc(NC(=O)NC2CCCCC2)c1,inactive: 26.9%
10,N#Cc1ccccc1COC(=O)CCN=C1NS(=O)(=O)c2ccccc21,inactive: -16.3%
11,COc1cc(N2C(=O)c3ccccc3C2=O)c(Cl)cc1C(=O)OCC(=O)N1CCOCC1,inactive: -14.6%
12,Cc1ccc(NC(=O)CCC2CC(C)(C)OC2=O)cc1 (stereo unspecified),inactive: 8.88%
13,Cc1cccc(NC(=O)CCNC(=O)c2ccco2)c1C,inactive: 4.53%
14,NC(=O)c1ccccc1OCC(=O)Nc1ccc2c(c1)OCCO2,inactive: -16.1%
15,CC1CCCN(CC(=O)NNC(=O)COc2ccc(Br)cc2)C1 (stereo unspecified),inactive: 3.67%
16,CN(C)C(CNC(=O)c1ccc([N+](=O)[O-])cc1Cl)c1ccco1 (stereo unspecified),inactive: 6.06%
17,Cn1c2ccccc2c2cc(/C=C(\NC(=O)c3ccccc3)C(=O)O)ccc21,inactive: -1.52%
18,CCc1nc2c(OCc3ccc(C(=O)N(C)C)cc3)cccn2c1N(C=O)Cc1ccccc1,inactive: 4.4%
19,NC(c1ccccc1)c1csc(Nc2ccc(C(=O)NCCCO)cn2)n1 (stereo unspecified),inactive: 13.1%
20,COc1ccc(/C=C/C(=O)NCCCN2CCOCC2)cc1,inactive: 2.83%
21,O=C(NCCCN=C1NS(=O)(=O)c2ccccc21)c1ccccc1Cl,inactive: 3.57%
22,C/C(=N\n1cnnc1)c1ccccc1,inactive: 10.3%
23,Cc1cccc(/C=N/NC(=O)NC23CC4CC(CC(C4)C2)C3)n1,inactive: 10.5%
